{
  "source": "paper PMC12569658",
  "about": "“An Orally Administered Misuse Deterrent Opioid Prodrug for Treatment of Acute Pain” (JACS Au, 2025)",
  "system": "C57BL/6J mice",
  "test": "Hot plate latency after PO gavage",
  "conditions": "30 mg/kg of oxycodone in prodrug, one-way ANOVA with Dunnett's post hoc, ** = p < 0.01",
  "data": [
    {"substance": "Ac-Lys[Tyr-Ala-Ala-Ala]-(2-(oxycodone-thionocarbamate)methyl)ethylamino ditrifluoroacetate [compound 20]", "values": [
      {"measurement": "analgesic effect versus PO gavage of water only (statistics)", "result": "statistically significant"}
    ]}
  ]
}
